Data from PubChem BioAssay AID330 (DTP/NCI, 2004).
Inconclusive results and toxic doses are left out. For part of its entries the source gives two or more results. The other results are left out here. The source may hold further records. Values given together repeat one measurement across runs, samples, wells, individuals or studies. A tag in brackets gives the origin of a value. The letters are not those of the source and start again with each entry.

Tested on: P388 leukemia ip, CD2F1 mice, survival T/C
Test: NCI In Vivo Anticancer Drug Screen. Data for tumor model P388 Leukemia (intraperitoneal) in CD2F1 (CDF1) mice
Settings: endpoint: median survival time, higher = longer survival
[1] = dose: 50.0 mg/kg/injection, schedule: Q01DX009 (ip), vehicle: saline
[2] = dose: 240.0 mg/kg/injection, schedule: Q01DX005 (ip), vehicle: saline with Tween-80

O=C1C=C(O)C(=O)C(CC2=C(O)C(=O)C=C(O)C2=O)=C1O
T/C (dose: 50.0 mg/kg/injection, schedule: Q01DX005 (ip), vehicle: Klucel (hydroxypropylcellulose) (HPC)): 87 % of control, 96 % of control, 161 % of control

[Cl][Pt+2][Cl].[NH-]c1cccc(F)c1.[NH-]c1cccc(F)c1
T/C (dose: 12.5 mg/kg/injection, schedule: Q01DX009 (ip), vehicle: Klucel (hydroxypropylcellulose) (HPC)): 120 % of control and 167 % of control

NC1=NC(=S)C2N=C(N=Nc3ccc(C(=O)NC(CCC(=O)O)C(=O)O)cc3)N=C2N1 (configuration not stated)
T/C (dose: 0.37 mg/kg/injection, schedule: Q01DX009 (ip), vehicle: Klucel (hydroxypropylcellulose) (HPC)): 117 % of control and 157 % of control

Cc1cc(N(CCOS(C)(=O)=O)CCOS(C)(=O)=O)ccc1C=Nc1ccc(-c2nc(Cc3ccccc3)sc2C)cc1
T/C (dose: 25.0 mg/kg/injection, schedule: Q01DX009 (ip), vehicle: Klucel (hydroxypropylcellulose) (HPC)): 119 % of control and 166 % of control

CCC/C(=N\O)S(=O)(=O)c1ccc(NN=O)nc1
T/C [1]: 90 % of control and 154 % of control

CN1CCc2c(c3ccccc3c3ccccc23)C1
T/C (dose: 100.0 mg/kg/injection, schedule: Q01DX009 (ip), vehicle: Klucel (hydroxypropylcellulose) (HPC)): 105 % of control and 168 % of control

CO[C@H]1Nc2c(ccc(C)c2O)C(=O)N2C=C(/C=C/C(N)=O)C[C@@H]12
T/C (dose: 0.36 mg/kg/injection, schedule: Q04DX003 (ip), vehicle: saline + alcohol): 92 % of control, 159 % of control, 165 % of control

COC(=O)[C@@]12OC[C@]34[C@H]([C@@H](O)[C@@H]1O)[C@@]1(C)CC(=O)C(O)=C(C)[C@@H]1C[C@H]3OC(=O)[C@H](OC(=O)/C=C(/C)C(C)(C)O)[C@@H]24
T/C (dose: 1.0 mg/kg/injection, schedule: Q01DX009 (ip), vehicle: saline + alcohol): 103 % of control and 154 % of control

O=NNc1ccc(Oc2ccccc2)cn1
T/C (dose: 12.5 mg/kg/injection, schedule: Q01DX009 (ip), vehicle: saline): 121 % of control and 184 % of control

COc1cc(C2CC(C)(O)Oc3cc4c(cc32)OCO4)cc(OC)c1OC (configuration not stated)
T/C (dose: 120.0 mg/kg/injection, schedule: Q01DX005 (ip), vehicle: saline with Tween-80): 114 % of control and 163 % of control
T/C [2]: 89 % of control and 152 % of control

N[C@H](C(=O)O)[C@@H]1CC(Cl)=NO1
T/C (dose: 4.0 mg/kg/injection, schedule: Q01DX005 (ip), vehicle: water): 119 % of control and 166 % of control
T/C (dose: 8.0 mg/kg/injection, schedule: Q01DX005 (ip), vehicle: water): 122 % of control and 150 % of control
T/C (dose: 12.0 mg/kg/injection, schedule: Q01DX009 (ip), vehicle: saline): 102 % of control and 191 % of control
T/C (dose: 50.0 mg/kg/injection, schedule: Q01DX005 (ip), vehicle: water): 110 % of control and 179 % of control

Nc1nc(N)c2c(ccc3c2ccn3Cc2cccc([N+](=O)[O-])c2)n1
T/C (dose: 12.5 mg/kg/injection, schedule: Q01DX005 (ip), vehicle: saline with Tween-80): 97 % of control, 100 % of control, 187 % of control

Cc1c2ccncc2c(C)c2c1[nH]c1ccccc12
T/C (dose: 25.9 mg/kg/injection, schedule: Q04DX002 (ip), vehicle: saline with Tween-80): 120 % of control and 173 % of control

[Cl][Pt+2][Cl].[NH-]C1CCC1.[NH2-]
T/C (dose: 6.0 mg/kg/injection, schedule: Q01DX005 (ip), vehicle: saline): 94 % of control, 154 % of control, 190 % of control

C[CH2][Sn]([CH2]C)([N](c1ccccn1)c1ccccn1)[N](c1ccccn1)c1ccccn1
T/C (dose: 12.5 mg/kg/injection, schedule: Q01DX005 (ip), vehicle: Klucel (hydroxypropylcellulose) (HPC)): 122 % of control and 151 % of control

CC([NH-])C[NH-].O=S(=O)(O)O.[Pt+2] (configuration not stated)
T/C (dose: 6.25 mg/kg/injection, schedule: Q04DX002 (ip), vehicle: saline): 103 % of control [sample A] and 197 % of control [sample B]

O=NN(CCCl)C(=O)Oc1ccc(OC(=O)N(CCCl)N=O)cc1
T/C (dose: 50.0 mg/kg/injection, schedule: Q01DX001 (ip), vehicle: Klucel (hydroxypropylcellulose) (HPC)): 117 % of control and 150 % of control

CCC(=O)OCC(=O)[C@]1(O)Cc2c(O)c3c(c(O)c2[C@@H](OC2CC(N)C(O)C(C)O2)C1)C(=O)c1c(OC)cccc1C3=O (some centres not stated)
T/C (dose: 4.0 mg/kg/injection, schedule: Q01DX009 (ip), vehicle: saline): 88 % of control and 157 % of control

Fc1ccc(F)c(C(Nc2nncs2)Nc2nncs2)c1
T/C [2]: 117 % of control and 174 % of control

Cn1c2nc(=O)n(-c3ccccc3)c(=O)c-2nc2c1CCCC2
T/C (dose: 25.0 mg/kg/injection, schedule: Q01DX009 (ip), vehicle: saline with Tween-80): 124 % of control and 171 % of control

Nc1[nH]c(=S)[nH]c(=O)c1NS(=O)(=O)c1ccccc1
T/C (dose: 60.0 mg/kg/injection, schedule: Q01DX005 (ip), vehicle: Klucel (hydroxypropylcellulose) (HPC)): 100 % of control, 103 % of control, 150 % of control

Oc1ccc(CCl)c2cccnc12
T/C [1]: 123 % of control and 150 % of control

Nc1nc(N)c2cc(Sc3ccc(Cl)cc3)ccc2n1
T/C (dose: 100.0 mg/kg/injection, schedule: Q01DX009 (ip), vehicle: saline with Tween-80): 123 % of control and 155 % of control
